Here are results for 1 molecule from patent US20260151520A1.

The target of the assay is Claudin 18.2 (Claudin 18 splice variant 2) (UniProt P56856). In words: cell-based or functional assay.

B1: Compound F ([177Lu]-Compound C-anti-CLDN 18.2 conjugate of antibody YU574-D03) (antibody, V domains shown)
VH: [about 100 residues not written out]RQVAWLGNWGQGTLVTVSS
VL: DIVMTQSPSSVSASVGDRVTITCRASQGISSWLAWYQQKPGKAPKLLIYAASSLQSGVPSRFSGSGSGTDFTLTISSLQPEDFATYYCQQANSFPLTFGGGTKVDIK
modifications: 177Lu complex of the DOTA chelate-linker Compound C conjugated to the antibody (Compound D, chelate-to-antibody ratio 5.4); residues and chain carrying it not stated
For the molecule B1, the internalized at 24 hr post-incubation (internalized radioactivity as a percentage of the total cell-associated activity; MiaPaCa2 K18.2 and PATU8988S cells) was found to be 35%.
